Assay results reported in PubChem BioAssay AID504832 (National Center for Advancing Translational Sciences (NCATS), 2011).
Out of some 310,000 compounds screened, about 18,000 (5.8%) were called active. This list was built around the results that the source calls inconclusive (neither active nor inactive); the mix of calls is not that of the screen. The call rests on the fitted dose curve; in most records, active means well fitted inhibition curve with a large enough effect; inconclusive means small, poorly fitted or top-dose-only effect, or another doubt; inactive means no such curve, though single readings can be large or run the other way. Potencies of inconclusive entries are left out as doubtful fits.

test: Primary qHTS for delayed death inhibitors of the malarial parasite plastid, 48 hour incubation; conditions: P. falciparum luciferase growth in erythrocytes; series mostly up to 28.7 µM
Summary of the method: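 A one-generation exposure of luciferase-tagged malaria parasites in RPMI 1640/Albumax erythrocyte culture, 37 C and 5% CO2. Inhibition is inferred from decreased luminescence after adding detection reagent.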
Potency means the concentration at half of the fitted maximal effect; tags describe the fitted curve by direction and shape.

Structure (SMILES)	Potency
O=C(c1ccccc1)N1CCCC(C(=O)N2CCCCCC2)C1 (centres undefined)	inconclusive [inhibitor, full curve, poor fit]
Cc1ccc(N(CC(=O)N/N=C/c2ccco2)S(=O)(=O)c2ccccc2)cc1	inconclusive [inhibitor, single point]
CN1CCN(CC(=O)Nc2cc(N(C)C)nc3ccccc23)CC1	inactive
CCC(C)(C)C1CCc2[nH]nc(C(=O)NN)c2C1 (centres undefined)	inconclusive [inhibitor, partial curve, poor fit]
O=C(Nc1ccccc1)NC1CCN(Cc2nnnn2C2CCCCC2)CC1	inconclusive [inhibitor, partial curve]
Cc1ccc(CNC(=O)C(NS(=O)(=O)c2cccc3nsnc23)C(C)C)cc1 (centres undefined)	inactive
COc1ccc(C2=NN3C(C2)c2ccccc2OC32C(=O)N(C)c3ccccc32)cc1 (centres undefined)	inconclusive [inhibitor, single point]
O=C(Oc1cc2oc(=O)c3c(c2cc1Cl)CCCC3)c1cccs1	inactive
COc1cccc(Nc2nc3ccccc3nc2NS(=O)(=O)c2ccc(NC(C)=O)cc2)c1	inconclusive [inhibitor, single point]
CCCCc1nnc(NC(=O)Cc2ccc(S(=O)(=O)N3CCOCC3)s2)s1	active: 10.4 µM
Cc1cnc(C(=O)Nc2ccc(C)c(S(=O)(=O)N3CCCCCC3)c2)cn1	inconclusive [inhibitor, single point]
COc1cccc(C2=Nc3cccc4cccc(c34)N2)c1	inconclusive [inhibitor, single point]
CON1C(=O)C(=O)N(OC)C(C)(C)C1(C)C	inactive
Cc1ccc(NS(=O)(=O)c2cccc(C(=O)NCC3CCCO3)c2)cc1 (centres undefined)	inconclusive [inhibitor, single point]
Cc1ccc(NC(=O)COC(=O)CCc2nc3ccccc3c(=O)[nH]2)cc1Cl	inactive
CCCNC(=O)OC[C@H]1O[C@H](CCO/N=C/[C@@H](OC)[C@H](C)/C=C/CC(=O)OC)C=C[C@@H]1Oc1ccc(OC)cc1	inconclusive [inhibitor, single point]
CCOC(=O)C1=C(CN2CCN(CCC#N)CC2)NC(=O)NC1c1ccc2c(c1)OCO2 (centres undefined)	inactive
O=C(COC(=O)c1ccc(O)cc1O)NC12CC3CC(CC(C3)C1)C2	inconclusive [inhibitor, single point]
CC(=O)Nc1ccc(NC(=O)c2cc(C3CC3)nc3c2cnn3C(C)C)cc1	inconclusive [inhibitor, single point]
